# According to publication PMC4336329 (PLoS ONE, 2015):
# Hit rate of the full screen: of about 310,000 compounds, about 2,200 (0.71%) showed an effect of 50% or more. The effect is printed as a negative number. The list shows a part of the results.
# Molecular target: human ether-à-go-go-related gene (hERG) potassium channel (human, UniProt Q12809)
# Assay: primary screen, population patch clamp on CHO cells stably expressing hERG
# Sequence of human ether-à-go-go-related gene (hERG) potassium channel (Q12809 whole entry, looked up): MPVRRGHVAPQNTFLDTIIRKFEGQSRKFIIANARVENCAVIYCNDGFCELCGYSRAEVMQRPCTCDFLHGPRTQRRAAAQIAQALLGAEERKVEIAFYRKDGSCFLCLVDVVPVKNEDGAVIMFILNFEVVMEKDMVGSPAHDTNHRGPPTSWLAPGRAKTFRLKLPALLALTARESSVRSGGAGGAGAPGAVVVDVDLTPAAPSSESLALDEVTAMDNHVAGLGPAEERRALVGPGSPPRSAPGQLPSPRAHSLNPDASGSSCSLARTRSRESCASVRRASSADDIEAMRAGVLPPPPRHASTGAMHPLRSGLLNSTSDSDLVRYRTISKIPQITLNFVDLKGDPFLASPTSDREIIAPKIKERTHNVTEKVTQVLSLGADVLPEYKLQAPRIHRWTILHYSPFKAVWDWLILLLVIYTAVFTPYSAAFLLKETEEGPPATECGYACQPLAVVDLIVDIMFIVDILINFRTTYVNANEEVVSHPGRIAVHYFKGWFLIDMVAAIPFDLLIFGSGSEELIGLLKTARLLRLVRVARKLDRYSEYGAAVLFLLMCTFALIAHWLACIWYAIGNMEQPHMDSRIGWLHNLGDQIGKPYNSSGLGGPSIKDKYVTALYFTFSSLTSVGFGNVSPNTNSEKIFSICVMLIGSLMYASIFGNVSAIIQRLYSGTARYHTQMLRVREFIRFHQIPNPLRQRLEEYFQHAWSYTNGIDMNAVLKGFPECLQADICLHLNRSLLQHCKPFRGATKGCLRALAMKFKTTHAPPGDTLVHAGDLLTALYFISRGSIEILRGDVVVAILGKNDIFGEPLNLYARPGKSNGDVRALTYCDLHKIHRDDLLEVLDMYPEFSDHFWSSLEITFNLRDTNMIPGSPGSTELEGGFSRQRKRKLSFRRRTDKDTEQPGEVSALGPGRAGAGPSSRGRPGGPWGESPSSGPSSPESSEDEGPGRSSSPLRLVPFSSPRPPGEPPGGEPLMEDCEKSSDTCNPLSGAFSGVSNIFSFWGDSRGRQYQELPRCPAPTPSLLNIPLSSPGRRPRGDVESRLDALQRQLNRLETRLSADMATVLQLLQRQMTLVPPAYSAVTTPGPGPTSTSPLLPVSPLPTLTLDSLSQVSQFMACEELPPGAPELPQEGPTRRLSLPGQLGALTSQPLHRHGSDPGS
row,SMILES,"hERG current change (%, negative = inhibition) at 1uM"
1,CC1CCN(S(=O)(=O)c2nnc(NC(=O)COc3ccccc3)s2)CC1,14.8%
2,CCC(=O)N(C)CCc1cc2c(c(OC)c1/C=N/NS(=O)(=O)c1ccc(C)cc1)OCO2,-2.41%
3,CCOc1ccccc1-c1noc(CCC(=O)NC2CCCCC2)n1,16.8%
4,COc1ccc(/C=C/C(=O)Nc2c(C(=O)O)[nH]c3ccccc23)cc1OC,10.8%
5,COc1ccc(N(CC(=O)NCc2cccs2)S(=O)(=O)c2cccnc2)cc1,9.3%
6,CN(C)c1ccc(/C=N/N=C(N)N)cc1[N+](=O)[O-],8.72%
7,O=C(CC(=O)c1ccccc1)Nc1cccnc1,16.5%
8,CCc1nnc(NC(=O)CN2CCN(c3ccccc3F)CC2)s1.Cl,8.76%
9,Cc1cc(/C=C2/SC(=O)N(CC(=O)N3CCCC3)C2=O)c(C)n1C,6.48%
10,O=C1C2CCCCN2C(=O)N1CCCCN1CCN(c2ccc(F)cc2)CC1 (stereo not shown),-7.05%
11,COc1cccc(Nc2nc(N)c([N+](=O)[O-])c(NCc3ccccc3)n2)c1,9.81%
12,CC(C)NC(=O)CSCc1c(Cl)cccc1Cl,-3.97%
13,COc1ccccc1NC(C)C(=O)Nc1ccc(C(C)=O)cc1 (stereo not shown),1.97%
14,CC(=O)Oc1ccc(-c2nc3c(C)cccc3c(=O)o2)cc1,11.9%
15,COC(=O)c1ccc(COc2ncnc3c(Cl)cc(Cl)cc23)o1,3.89%
16,O=C(/C=C/c1c(Cl)nc2ccccn12)N1CCN(c2ccccc2F)CC1,6.63%
17,Cc1ccc(NC(=O)CCNS(=O)(=O)c2ccc3[nH]c(=O)oc3c2)cc1,0.634%
18,Cc1ccc(C(C)C)c(OCC(=O)Nn2c(C)nc3ccccc3c2=O)c1,-10.3%
19,CC1(C)c2ccccc2N2CC(=O)NC21/C=C/c1ccco1 (stereo not shown),6.37%
20,Cc1c([N+](=O)[O-])cc(C(=O)Nc2ccc3ncccc3c2)cc1[N+](=O)[O-],19.2%
21,CCc1cc(CN2CCOCC2)c(NC(=O)c2ccccc2)s1,7.45%
22,CCc1cc(=O)oc2c(C)c(OC(C)C(=O)NCCCn3ccnc3)ccc12 (stereo not shown),12.5%
23,Cn1c(N)c(N=O)c(=O)n(C)c1=O,12.1%
24,COCCN(C(=O)COC(=O)CC(C)c1ccccc1)c1c(N)n(Cc2ccccc2)c(=O)[nH]c1=O (stereo not shown),3.91%
25,COc1ccc2nc(C)c3c(c2c1)OC(C)C3 (stereo not shown),-8.52%
26,O=C(c1ccc(N2CCN(C3CC(=O)N(Cc4cccs4)C3=O)CC2)cc1)c1cccnc1 (stereo not shown),-15.5%
27,COc1ccc(OC)c(NC(=O)CC2SC(=N)N(c3ccccc3)C2=O)c1 (stereo not shown),0.203%
28,COc1ccc(S(=O)(=O)N2CCC(C)CC2)cc1Br,3.09%

row,SMILES,"hERG current change (%, negative = inhibition) at 1uM"
1,Fc1ccc(-c2nnc(CSc3nnc(-c4ccc5c(c4)OCO5)o3)o2)cc1,3.29%
2,C#CCOCCOCCOCCNc1nc(N2CCN(C(=O)CCCCCCCCCCNC(=O)Cn3cc(C[C@@H](C)O)nn3)CC2)nc(N2CCN(C(=O)CCCCCCCCCCNC(=O)[C@@H]([C@H](C)O)n3cc(C)nn3)CC2)n1,11.4%
3,COc1ccc(/C(O)=C2/C(=O)C(=O)N(CCN(C)C)C2c2ccc(OC)c(OC)c2)c(C)c1 (stereo not shown),8.29%
4,O=C(CNC1CCCC1)Nc1ccc(S(=O)(=O)N2CCCCC2)cc1,11.8%
5,O=C(CN1CCC(N2CCCCC2)CC1)N1CCOCC1.O=C(O)C(=O)O,9.13%
6,CCOc1cc(S(=O)(=O)NC2CCCCC2)ccc1F,4.43%
7,Clc1ccc(-c2nc3n(n2)Cc2ccccc2-3)cc1,1.24%
8,Cc1nc2cc([N+](=O)[O-])ccc2c(=O)n1-c1cccc(Br)c1,-6.43%
9,CCOC(=O)C1=NN(C(C)=O)C2(CC(=O)N(c3ccc(C)c(C)c3)C2=O)C1 (stereo not shown),0.383%
10,Cc1cc2c(=O)[nH]cnc2s1,17%
11,CC(C)(C)OCC(O)C[NH+]1CCN(C(=O)c2ccccc2)CC1.O=C([O-])C(=O)[O-] (stereo not shown),11%
12,CC(=O)Nc1ccc(S(=O)(=O)c2ccc(N)cc2)cc1N,7.35%
13,COc1ccc(C(=O)NCc2nnc(SCC(=O)Nc3nc4ccc(C)cc4s3)o2)cc1OC,9.95%
14,N#CC1=C(N)OC2=C(C(=O)CCC2)C1C1C=CCCC1 (stereo not shown),7.33%
15,COC(=O)c1cc(OC)c(OC)cc1NC(=O)CCCCCN1C(=O)CCC1=O,16%
16,COc1ccc(CNC(=O)C(CCSC)NC(=O)c2ccco2)cc1 (stereo not shown),-0.678%
17,CC(Cc1cccs1)NCc1ccccc1 (stereo not shown),12.8%
18,Cc1cc(/C=C2/SC(=O)NC2=O)c(C)n1-c1ccc(N2CCOCC2)cc1,10.6%
19,O=C(NC1CCCC1)C1CCN(C(=O)c2cccc(Cl)c2)CC1,29%
20,CON/C=C(\C=Nc1ccc(Cl)cc1)c1ncc(C(F)(F)F)cc1Cl,3.4%
21,CCOc1cc(C(=S)N2CCOCC2)ccc1OS(=O)(=O)c1ccc(Br)cc1,7.63%
22,CC(OC(=O)CCCN=C1NS(=O)(=O)c2ccccc21)C(=O)Nc1ccccc1F (stereo not shown),-4.77%
23,Cn1nccc1C(=O)NC(=S)Nc1cc(Cl)cc(Cl)c1,11%
24,O=C(Nc1ccc(F)cc1F)NC1CCCc2ccccc21 (stereo not shown),2%
25,Cc1ccc2nc(NC(=O)C(NS(=O)(=O)c3cccc4nsnc34)C(C)C)sc2c1 (stereo not shown),3.14%
26,Cc1c(Cc2ccccc2)c(=O)oc2c(C)c(OC(C)C(=O)N[C@@H](Cc3ccccc3)C(=O)O)ccc12 (stereo partly shown),8.39%
27,N#Cc1c(N2CCOCC2)nsc1-c1ccccc1,14%
